The campaign covered roughly 310,000 compounds. About 2,200 (0.71%) showed an effect of 50% or more. The effect is printed as a negative number. The list shows a part of the results.
What follows are compounds tested against human ether-à-go-go-related gene (hERG) potassium channel (human, UniProt Q12809) (assay: primary screen, population patch clamp on CHO cells stably expressing hERG).
human ether-à-go-go-related gene (hERG) potassium channel, sequence (Q12809 whole entry, looked up): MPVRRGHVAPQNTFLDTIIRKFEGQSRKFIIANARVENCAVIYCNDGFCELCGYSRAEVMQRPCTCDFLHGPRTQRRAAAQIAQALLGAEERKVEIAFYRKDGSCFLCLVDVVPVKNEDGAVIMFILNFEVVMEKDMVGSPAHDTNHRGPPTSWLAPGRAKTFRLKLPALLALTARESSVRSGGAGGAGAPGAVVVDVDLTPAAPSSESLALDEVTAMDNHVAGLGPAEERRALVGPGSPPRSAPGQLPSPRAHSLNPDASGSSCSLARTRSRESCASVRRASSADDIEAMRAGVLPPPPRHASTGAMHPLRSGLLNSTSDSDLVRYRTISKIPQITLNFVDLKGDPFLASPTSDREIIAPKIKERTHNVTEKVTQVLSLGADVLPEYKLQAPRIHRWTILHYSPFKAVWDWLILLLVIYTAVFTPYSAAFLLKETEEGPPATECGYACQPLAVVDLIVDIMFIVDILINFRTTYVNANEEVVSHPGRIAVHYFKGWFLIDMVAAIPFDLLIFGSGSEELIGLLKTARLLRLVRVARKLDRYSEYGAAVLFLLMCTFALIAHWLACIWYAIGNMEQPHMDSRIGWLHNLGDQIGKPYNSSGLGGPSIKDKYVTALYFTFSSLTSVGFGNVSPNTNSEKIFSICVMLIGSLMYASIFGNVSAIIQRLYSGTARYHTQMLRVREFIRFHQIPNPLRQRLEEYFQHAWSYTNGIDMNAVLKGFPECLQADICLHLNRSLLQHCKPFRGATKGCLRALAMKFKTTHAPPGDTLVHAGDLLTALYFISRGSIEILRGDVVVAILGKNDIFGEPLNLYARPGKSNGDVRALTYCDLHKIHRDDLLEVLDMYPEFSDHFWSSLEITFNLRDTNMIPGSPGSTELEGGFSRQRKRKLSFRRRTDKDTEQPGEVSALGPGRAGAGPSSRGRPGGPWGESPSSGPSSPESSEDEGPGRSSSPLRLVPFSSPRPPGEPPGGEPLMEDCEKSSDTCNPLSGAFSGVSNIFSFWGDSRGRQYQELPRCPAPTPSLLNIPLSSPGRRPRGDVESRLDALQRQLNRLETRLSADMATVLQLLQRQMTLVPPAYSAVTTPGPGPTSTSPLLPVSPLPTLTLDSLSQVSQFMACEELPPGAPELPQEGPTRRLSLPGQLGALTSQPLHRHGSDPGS

Row | SMILES | hERG current change (%, negative = inhibition) at 1uM [%]
1 | Cn1c2ccccc2c2cc(C(=O)OCC(=O)N3CC(=O)Nc4ccccc43)sc21 | 12
2 | COc1ccc(Oc2cc(NN3CCCCC3)c([N+](=O)[O-])cc2[N+](=O)[O-])cc1OC | 3.74
3 | COc1ccc(-c2cnn(C3CCS(=O)(=O)C3)c2N)cc1 (stereo not shown) | 15.8
4 | CC(C)Oc1snc(Cl)c1C(N)=O | 14.9
5 | COc1ccccc1CC(NC(C)=O)C(=O)NC1CCN(C(=O)Nc2ccccc2F)CC1 (stereo not shown) | 24.1
6 | NC(=O)c1ccc(-n2nnnc2SCc2ccccc2)cc1 | 15.6
7 | N/C(Cc1ccc([N+](=O)[O-])cc1)=N\OC(=O)COc1ccccc1Cl | 7.96
8 | Cc1ccc2cc(CCNC(=O)c3ccc4c(c3)OCO4)c(=O)[nH]c2c1C | 4.03
9 | CCOC(=O)C1=C(N)N(c2ccccc2Oc2ccccc2)C(=O)C1 | 10.2
10 | O=S(=O)(CCc1nc2ccccc2o1)c1ccc(Cl)cc1 | 7.52
11 | O=c1ccn(Cc2ccccc2)c(=O)n1Cc1ccccc1 | -1.57
12 | COc1ccc(N2CCN(C(=O)CSc3ncnc4scc(-c5ccc(C)cc5)c34)CC2)cc1 | 8.4
13 | CCOc1cc(-c2nc(C)c(C(C)=O)n2O)ccc1OCC(=O)Nc1ccc(F)cc1 | 3.55
14 | O=C1C2C3C=CC(CC3)C2C(=O)N1c1nccs1 (stereo not shown) | 10.1
15 | CC(C)(C)C(=O)CSc1nc(N)cc(=O)[nH]1 | 14.2
16 | Cc1nn(Cc2ccc(C(=O)NN)cc2)c(C)c1Cl | 12.7
17 | NC(=O)c1ccnc2c(O)cccc12.O=C(O)C(F)(F)F | -1.81
18 | CC(=O)NS(=O)(=O)c1ccc(NC(=O)c2cc(-c3cccs3)nc3ccccc23)cc1 | 13.3
19 | Cc1ccc(NC(=O)CCCC(=O)OC(C)C(=O)c2ccccc2)cc1 (stereo not shown) | 7.54
20 | COc1ccc2c(c1)C(=O)N(c1ccccc1)C(=O)C2 | 9
21 | c1ccn2c(Cc3nnc4ccccn34)nnc2c1 | 5.87
22 | CCCCOc1ccc(C(=O)Nc2ccc(OCC(=O)N3CCOCC3)cc2)cc1 | 20.9
23 | CCOCCCNC(=S)N1CCC(NC(=O)c2ccco2)CC1 | -1.87

Row | SMILES | hERG current change (%, negative = inhibition) at 1uM [%]
24 | CC(=O)Nc1ccc(S(=O)(=O)Nc2ncccn2)cc1 | 0.942
25 | CC(C)CC(CCc1ccccc1)OS(N)(=O)=O (stereo not shown) | 11.7
26 | COc1ccc(Cc2nnc(SCC(=O)N3CCc4ccccc4C3)o2)cc1 | 3.32
27 | CCn1c(=S)[nH]c2nc3c(cc2c1=O)CCCC3 | 1.12
28 | O=[N+]([O-])c1ccc(/C=C/c2nc3ccc([N+](=O)[O-])cc3[nH]2)cc1 | 13.6
29 | O=c1c(CN2CCN(Cc3ccccc3F)C(CCO)C2)coc2ccccc12 (stereo not shown) | 4.79
30 | Cc1cccc(OCc2nnc(SCC(=O)O)n2Cc2ccccc2)c1 | 12.7
31 | COc1ccc(C2=CC(=O)C[C@H](c3ccc4c(c3)OCO4)C2)cn1 | 14.8
32 | COc1ccc(N2CCN(CCCNC(=O)c3ccc(CS(=O)(=O)c4ccc(Cl)cc4)o3)CC2)cc1 | -71.2
33 | CC(C)CC(=O)NC(=S)Nc1ccccc1C(=O)Nc1ccccc1 | 12.1
34 | C/C(=N/NC(=O)c1ccc(-c2ccccc2)cc1)c1cccc(O)c1 | 14.4
35 | CC(=O)Nc1ccc(NC(=O)C2CCN(C(=O)C3CC(=O)N(c4ccc(C)cc4)C3)CC2)cc1 (stereo not shown) | 8.95
36 | CCNC(=S)Nc1cc(C)ccn1 | 15.8
37 | Cc1cn(C2CC3OCC3O2)c(=O)[nH]c1=O (stereo not shown) | 13.9
38 | CCc1c(C)nc(N)nc1N1N=C1SCC(=O)OC | 3.22
39 | CC(=O)Nc1ccc(S(=O)(=O)Nc2ccc(N3CCOCC3)cc2)cc1 | 11.5
40 | Cc1cccc(C)c1NC(=S)N(Cc1cccs1)C1CCCC1 | 7.2
41 | CC(=O)Nc1nonc1-c1nc2ccccc2n1N(C(C)=O)C(C)=O | 11.2
42 | Cc1cc(C)n(C(C[N+](=O)[O-])c2ccc(Cl)cc2)n1 (stereo not shown) | 2.43
43 | COCC1CCCN(C(=O)c2cc(COc3ccc4ncccc4c3)on2)C1 (stereo not shown) | 12.6
44 | O=C(O)C1C2CCC(O2)C1C(=O)Nc1ccc(Cl)cc1F (stereo not shown) | 7.65
45 | COc1ccc(S(=O)(=O)N(C)C)cc1NC(=O)CCNC(=O)c1ccco1 | 14.3
46 | COc1ccc(NC2CC(=O)N(c3ccccc3)C2=O)cc1 (stereo not shown) | -7.46

Reference: paper PMC4336329 (PLoS ONE, 2015)
